According to patent US12384801B2, “Benzothiophene, thienopyridine and thienopyrimidine derivatives for the modulation of sting” (CTXT PTY LTD, priority 2019, dated 2025):

Target: human STING (R232H) (Homo sapiens, UniProt Q86WV6)
Experiment: Differential scanning fluorimetry (DSF), huSTING (R232H)
Type: binding
Conditions: compound 100 μM, 2 μM protein, Tm with ligand minus Tm of protein alone (1% DMSO)
Protocol: Data were analyzed using “Meltdown analysis” protocol described by Rosa (2015).

| SMILES | DSF huSTING (R232H) ΔTm | ΔTm at 100 µM |
| --- | --- | --- |
| NC(=O)c1ccc2c(c1)nc(-c1c(C(=O)O)sc3cccc(Cl)c13)n2CCn1c(-c2c(C(=O)O)sc3cccc(Cl)c23)nc2cc(C(N)=O)ccc21 (single isomer, unassigned) [Example 1.1, 3,3′-(Ethane-1,2-diylbis(5-carbamoyl-1H-benzo[d]imidazole-1,2-diyl))bis(4-chlorobenzo[b]thiophene-2-carboxylic acid)] | 12.1 °C |  |
| NC(=O)c1ccc2c(c1)nc(-c1c(C(=O)O)sc3cccc(Cl)c13)n2CCn1c(-c2c(C(=O)O)sc3cccc(Cl)c23)nc2cc(C(N)=O)ccc21 (single isomer, unassigned) [Example 1.2, 3,3′-(Ethane-1,2-diylbis(5-carbamoyl-1H-benzo[d]imidazole-1,2-diyl))bis(4-chlorobenzo[b]thiophene-2-carboxylic acid)] | −4.3 °C |  |
| NC(=O)c1ccc2c(c1)nc(-c1c(C(=O)O)sc3c(F)ccc(Cl)c13)n2CCn1c(-c2c(C(=O)O)sc3c(F)ccc(Cl)c23)nc2cc(C(N)=O)ccc21 (single isomer, unassigned) [Example 2.1, 3,3′-(Ethane-1,2-diylbis(5-carbamoyl-1H-benzo[d]imidazole-1,2-diyl))bis(4-chloro-7-fluorobenzo[b]thiophene-2-carboxylic acid)] |  | 11.8 °C |
| NC(=O)c1ccc2c(c1)nc(-c1c(C(=O)O)sc3c(F)ccc(Cl)c13)n2CCn1c(-c2c(C(=O)O)sc3c(F)ccc(Cl)c23)nc2cc(C(N)=O)ccc21 (single isomer, unassigned) [Example 2.2, 3,3′-(Ethane-1,2-diylbis(5-carbamoyl-1H-benzo[d]imidazole-1,2-diyl))bis(4-chloro-7-fluorobenzo[b]thiophene-2-carboxylic acid)] | 6.9 °C |  |
| NC(=O)c1ccc2c(c1)nc(-c1c(C(=O)O)sc3cccc(Cl)c13)n2CCCn1c(-c2c(C(=O)O)sc3cccc(Cl)c23)nc2cc(C(N)=O)ccc21 (single isomer, unassigned) [Example 4.1, 3,3′-(Propane-1,3-diylbis(5-carbamoyl-1H-benzo[d]imidazole-1,2-diyl))bis(4-chlorobenzo[b]thiophene-2-carboxylic acid)] | −2.0 °C |  |
| NC(=O)c1ccc2c(c1)nc(-c1c(C(=O)O)sc3cccc(Cl)c13)n2CCCn1c(-c2c(C(=O)O)sc3cccc(Cl)c23)nc2cc(C(N)=O)ccc21 (single isomer, unassigned) [Example 4.2, 3,3′-(Propane-1,3-diylbis(5-carbamoyl-1H-benzo[d]imidazole-1,2-diyl))bis(4-chlorobenzo[b]thiophene-2-carboxylic acid)] | −0.91 °C |  |
| COc1cccc2sc(C(=O)O)c(-c3nc4cc(C(N)=O)ccc4n3CCn3c(-c4c(C(=O)O)sc5cccc(OC)c45)nc4cc(C(N)=O)ccc43)c12 (single isomer, unassigned) [Example 5.1, 3,3′-(Ethane-1,2-diylbis(5-carbamoyl-1H-benzo[d]imidazole-1,2-diyl))bis(4-methoxybenzo[b]thiophene-2-carboxylic acid)] | 7.51 °C |  |
| COc1cccc2sc(C(=O)O)c(-c3nc4cc(C(N)=O)ccc4n3CCn3c(-c4c(C(=O)O)sc5cccc(OC)c45)nc4cc(C(N)=O)ccc43)c12 (single isomer, unassigned) [Example 5.2, 3,3′-(Ethane-1,2-diylbis(5-carbamoyl-1H-benzo[d]imidazole-1,2-diyl))bis(4-methoxybenzo[b]thiophene-2-carboxylic acid)] |  | 11.3 °C |
| NC(=O)c1ccc2c(c1)nc(-c1c(C(=O)O)sc3cccc(Br)c13)n2CCn1c(-c2c(C(=O)O)sc3cccc(Br)c23)nc2cc(C(N)=O)ccc21 (single isomer, unassigned) [Example 11.1, 3,3′-(Ethane-1,2-diylbis(5-carbamoyl-1H-benzo[d]imidazole-1,2-diyl))bis(4-bromobenzo[b]thiophene-2-carboxylic acid)] | 10.45 °C |  |
| NC(=O)c1ccc2c(c1)nc(-c1c(C(=O)O)sc3cccc(Br)c13)n2CCn1c(-c2c(C(=O)O)sc3cccc(Br)c23)nc2cc(C(N)=O)ccc21 (single isomer, unassigned) [Example 11.2, 3,3′-(Ethane-1,2-diylbis(5-carbamoyl-1H-benzo[d]imidazole-1,2-diyl))bis(4-bromobenzo[b]thiophene-2-carboxylic acid)] | −1.64 °C |  |
| COc1ccc(F)c2sc(C(=O)O)c(-c3nc4cc(C(N)=O)ccc4n3CCn3c(-c4c(C(=O)O)sc5c(F)ccc(OC)c45)nc4cc(C(N)=O)ccc43)c12 (single isomer, unassigned) [Example 13.1, 3,3′-(Ethane-1,2-diylbis(5-carbamoyl-1H-benzo[d]imidazole-1,2-diyl))bis(7-fluoro-4-methoxybenzo[b]thiophene-2-carboxylic acid)] | 11.81 °C |  |
| COc1ccc(F)c2sc(C(=O)O)c(-c3nc4cc(C(N)=O)ccc4n3CCn3c(-c4c(C(=O)O)sc5c(F)ccc(OC)c45)nc4cc(C(N)=O)ccc43)c12 (single isomer, unassigned) [Example 13.2, 3,3′-(Ethane-1,2-diylbis(5-carbamoyl-1H-benzo[d]imidazole-1,2-diyl))bis(7-fluoro-4-methoxybenzo[b]thiophene-2-carboxylic acid)] | −2.9 °C |  |
| Cc1cccc2sc(C(=O)O)c(-c3nc4cc(C(N)=O)ccc4n3CCn3c(-c4c(C(=O)O)sc5cccc(C)c45)nc4cc(C(N)=O)ccc43)c12 (single isomer, unassigned) [Example 15.1, 3,3′-(Ethane-1,2-diylbis(5-carbamoyl-1H-benzo[d]imidazole-1,2-diyl))bis(4-methylbenzo[b]thiophene-2-carboxylic acid)] |  | 6.6 °C |
| Cc1cccc2sc(C(=O)O)c(-c3nc4cc(C(N)=O)ccc4n3CCn3c(-c4c(C(=O)O)sc5cccc(C)c45)nc4cc(C(N)=O)ccc43)c12 (single isomer, unassigned) [Example 15.2, 3,3′-(Ethane-1,2-diylbis(5-carbamoyl-1H-benzo[d]imidazole-1,2-diyl))bis(4-methylbenzo[b]thiophene-2-carboxylic acid)] | 10.23 °C |  |
| NC(=O)c1ccc2c(c1)nc(-c1c(C(=O)O)sc3cccc(C(F)(F)F)c13)n2CCn1c(-c2c(C(=O)O)sc3cccc(C(F)(F)F)c23)nc2cc(C(N)=O)ccc21 (single isomer, unassigned) [Example 19.1, 3,3′-(Ethane-1,2-diylbis(5-carbamoyl-1H-benzo[d]imidazole-1,2-diyl))bis(4-(trifluoromethyl)benzo[b]thiophene-2-carboxylic acid)] | 8.21 °C |  |
| NC(=O)c1ccc2c(c1)nc(-c1c(C(=O)O)sc3cccc(C(F)(F)F)c13)n2CCn1c(-c2c(C(=O)O)sc3cccc(C(F)(F)F)c23)nc2cc(C(N)=O)ccc21 (single isomer, unassigned) [Example 19.2, 3,3′-(Ethane-1,2-diylbis(5-carbamoyl-1H-benzo[d]imidazole-1,2-diyl))bis(4-(trifluoromethyl)benzo[b]thiophene-2-carboxylic acid)] | 1.85 °C |  |
| NC(=O)c1ccc2c(c1)nc(-c1c(C(=O)O)sc3c(F)ccc(Br)c13)n2CCn1c(-c2c(C(=O)O)sc3c(F)ccc(Br)c23)nc2cc(C(N)=O)ccc21 (single isomer, unassigned) [Example 20.1, 3,3′-(Ethane-1,2-diylbis(5-carbamoyl-1H-benzo[d]imidazole-1,2-diyl))bis(4-bromo-7-fluorobenzo[b]thiophene-2-carboxylic acid)] | 14.94 °C |  |
| NC(=O)c1ccc2c(c1)nc(-c1c(C(=O)O)sc3c(F)ccc(Br)c13)n2CCn1c(-c2c(C(=O)O)sc3c(F)ccc(Br)c23)nc2cc(C(N)=O)ccc21 (single isomer, unassigned) [Example 20.2, 3,3′-(Ethane-1,2-diylbis(5-carbamoyl-1H-benzo[d]imidazole-1,2-diyl))bis(4-bromo-7-fluorobenzo[b]thiophene-2-carboxylic acid)] | −4.15 °C |  |
| COc1c(C(N)=O)ccc2c1nc(-c1c(C(=O)O)sc3cccc(Cl)c13)n2CCn1c(-c2c(C(=O)O)sc3cccc(Cl)c23)nc2c(OC)c(C(N)=O)ccc21 (single isomer, unassigned) [Example 22.1, 3,3′-(Ethane-1,2-diylbis(5-carbamoyl-4-methoxy-1H-benzo[d]imidazole-1,2-diyl))bis(4-chlorobenzo[b]thiophene-2-carboxylic acid)] |  | 30.6 °C |
| COc1c(C(N)=O)ccc2c1nc(-c1c(C(=O)O)sc3cccc(Cl)c13)n2CCn1c(-c2c(C(=O)O)sc3cccc(Cl)c23)nc2c(OC)c(C(N)=O)ccc21 (single isomer, unassigned) [Example 22.2, 3,3′-(Ethane-1,2-diylbis(5-carbamoyl-4-methoxy-1H-benzo[d]imidazole-1,2-diyl))bis(4-chlorobenzo[b]thiophene-2-carboxylic acid)] | 28.13 °C |  |
| NC(=O)c1ccc2c(c1)nc(-c1c(C(=O)O)sc3cccc(Cl)c13)n2CCCCn1c(-c2c(C(=O)O)sc3cccc(Cl)c23)nc2cc(C(N)=O)ccc21 [Example 3, 3,3′-(Butane-1,4-diylbis(5-carbamoyl-1H-benzo[d]imidazole-1,2-diyl))bis(4-chlorobenzo[b]thiophene-2-carboxylic acid)] |  | -0.15 °C |
| COc1nccc2sc(C(=O)O)c(-c3nc4cc(C(N)=O)ccc4n3CCn3c(-c4c(C(=O)O)sc5ccnc(OC)c45)nc4cc(C(N)=O)ccc43)c12 [Example 7, 3,3′-(Ethane-1,2-diylbis(5-carbamoyl-1H-benzo[d]imidazole-1,2-diyl))bis(4-methoxythieno[3,2-c]pyridine-2-carboxylic acid)] |  | -0.34 °C |
| NC(=O)c1ccc2c(c1)nc(-c1c(C(=O)O)sc3ccccc13)n2CCn1c(-c2c(C(=O)O)sc3ccccc23)nc2cc(C(N)=O)ccc21 [Example 9, 3,3′-(Ethane-1,2-diylbis(5-carbamoyl-1H-benzo[d]imidazole-1,2-diyl))bis(benzo[b]thiophene-2-carboxylic acid)] |  | 1.03 °C |
